Reference: patent US20110020312A1, “METHODS FOR TREATMENT OF METABOLIC DISORDERS USING EPIMETABOLIC SHIFTERS, MULTIDIMENSIONAL INTRACELLULAR MOLECULES, OR ENVIRONMENTAL INFLUENCERS” (priority 2009, published 2011)

Tests used:
[1] = tested on: SK-MEL-28 cells; test: Real-time PCR Apoptosis Array; type: cell-based
Description: The formulation of the Q10 was as follows. […] The resulting solution was warmed in a 65° C. water bath and vortexed at high speed. […] For the control vehicle, 9.5 mL of media was added to 500 μL of isopropanol. The control stock was further diluted (2 mL of stock) with 8 mL of media.
RNA was quantified by measuring Optical Density at 260 nm.
(SABiosciences, Frederick, Md.).
A vehicle was prepared in parallel with a similar protocol except that the Coenzyme Q10 was not added.

[2] = tested on: SK-MEL-28 cells; test: Real-time PCR Oxidative Stress and Antioxidant Defense Array; type: cell-based; conditions: for MBL2 mRNA level change / NCF1 mRNA level change / NCF2 mRNA level change / NME5 mRNA level change / PRDX5 mRNA level change / PREX1 mRNA level change / PRNP mRNA level change / PTGS2 mRNA level change / RPL13A mRNA level change / SGK2 mRNA level change / SIRT2 mRNA level change / APOE mRNA level change / BNIP3 mRNA level change / CAT mRNA level change / CCS mRNA level change / CYBA mRNA level change / DUSP1 mRNA level change / FOXM1 mRNA level change: SKMEL-28, 100 μM
Description: The resulting solution was warmed in a 65° C. water bath and vortexed at high speed. […] For the control vehicle, 9.5 mL of media was added to 500 μL of isopropanol. The control stock was further diluted (2 mL of stock) with 8 mL of media. […] Experimental details: […] (SABiosciences, Frederick, Md.). […] Further experiments were carried out using SKMEL-28 cells. […] The PCR array (SABiosciences) is a set of optimized real-time PCR primer assays on 96-well plates for pathway or disease focused genes as well as appropriate RNA quality controls. The PCR array performs gene expression analysis with real-time PCR sensitivity and the multi-gene profiling capability of a microarray.

For `COC1=C(OC)C(=O)C(C/C=C(\C)CC/C=C(\C)CC/C=C(\C)CC/C=C(\C)CC/C=C(\C)CC/C=C(\C)CC/C=C(\C)CC/C=C(\C)CC/C=C(\C)CCC=C(C)C)=C(C)C1=O` [Q10, Coenzyme Q10], which “tumor protein p73 mRNA” value ([1]; 100 μM Q10) is on record?
The value was “strong down regulation”.

What about the “Caspase-9 mRNA” value ([1]; 16 hour) of the same molecule?
The value was “upregulation”.

And the “MBL2 mRNA level change” value ([2]; 16 hr)?
The value was −1.9072.

What about the “NCF1 mRNA level change” value ([2]; 16 hr) of the same molecule?
Its value is “high”.

What about the “NCF2 mRNA level change” value ([2]; 16 hr) of the same molecule?
Its value is 3.0077.

And the “NME5 mRNA level change” value ([2]; 16 hr)?
Its value is 3.1138.

And the “PRDX5 mRNA level change” value ([2]; 16 hr)?
The value was 3.0454.

What about the “PREX1 mRNA level change” value ([2]; 16 hr) of the same molecule?
The value was 2.867.

And the “PRNP mRNA level change” value ([2]; 16 hr)?
Its value is 3.5236.

And the “PTGS2 mRNA level change” value ([2]; 16 hr)?
Its value is 2.7046.

And the “RPL13A mRNA level change” value ([2]; 16 hr)?
The value was 3.1857.

What about the “SGK2 mRNA level change” value ([2]; 16 hr) of the same molecule?
Its value is 0.

And the “SIRT2 mRNA level change” value ([2]; 16 hr)?
The value was 4.0829.

What about the “APOE mRNA level change” value ([2]; 24 hr) of the same molecule?
The value was −0.9543.

And the “BNIP3 mRNA level change” value ([2]; 24 hr)?
The value was 4.312.

And the “CAT mRNA level change” value ([2]; 24 hr)?
The value was 0.1046.

What about the “CCS mRNA level change” value ([2]; 24 hr) of the same molecule?
Its value is 3.452.

What about the “CYBA mRNA level change” value ([2]; 24 hr) of the same molecule?
Its value is 3.9208.

What about the “DUSP1 mRNA level change” value ([2]; 24 hr) of the same molecule?
Its value is 2.7713.

What about the “FOXM1 mRNA level change” value ([2]; 24 hr) of the same molecule?
The value was −0.9216.

What about the “MBL2 mRNA level change” value ([2]; 24 hr) of the same molecule?
The value was −3.0142.

What about the “NCF1 mRNA level change” value ([2]; 24 hr) of the same molecule?
The value was 3.3829.

And the “NCF2 mRNA level change” value ([2]; 24 hr)?
The value was 0.0954.

And the “NME5 mRNA level change” value ([2]; 24 hr)?
The value was 3.3694.

What about the “PRDX5 mRNA level change” value ([2]; 24 hr) of the same molecule?
The value was 3.5381.

What about the “PREX1 mRNA level change” value ([2]; 24 hr) of the same molecule?
Its value is 0.3222.

What about the “PRNP mRNA level change” value ([2]; 24 hr) of the same molecule?
Its value is 2.9086.

And the “PTGS2 mRNA level change” value ([2]; 24 hr)?
Its value is 2.6552.

And the “RPL13A mRNA level change” value ([2]; 24 hr)?
The value was 2.5492.

What about the “SGK2 mRNA level change” value ([2]; 24 hr) of the same molecule?
Its value is 0.

And the “SIRT2 mRNA level change” value ([2]; 24 hr)?
The value was 4.4766.

And the “APOE mRNA level change” value ([2]; 48 hr)?
The value was 3.7694.

And the “BNIP3 mRNA level change” value ([2]; 48 hr)?
Its value is −18.2069.

What about the “CAT mRNA level change” value ([2]; 48 hr) of the same molecule?
Its value is 3.8557.

What about the “CCS mRNA level change” value ([2]; 48 hr) of the same molecule?
Its value is 2.9801.

What about the “CYBA mRNA level change” value ([2]; 48 hr) of the same molecule?
Its value is 6.2452.

And the “DUSP1 mRNA level change” value ([2]; 48 hr)?
The value was 3.321.

And the “FOXM1 mRNA level change” value ([2]; 48 hr)?
The value was 3.3655.

And the “MBL2 mRNA level change” value ([2]; 48 hr)?
Its value is −1.1854.

What about the “NCF1 mRNA level change” value ([2]; 48 hr) of the same molecule?
Its value is 15.7838.

And the “NCF2 mRNA level change” value ([2]; 48 hr)?
Its value is 5.476.

And the “NME5 mRNA level change” value ([2]; 48 hr)?
The value was 3.1549.

What about the “PRDX5 mRNA level change” value ([2]; 48 hr) of the same molecule?
The value was 4.7955.

What about the “PREX1 mRNA level change” value ([2]; 48 hr) of the same molecule?
Its value is 6.3719.

What about the “PRNP mRNA level change” value ([2]; 48 hr) of the same molecule?
The value was 5.0837.

And the “PTGS2 mRNA level change” value ([2]; 48 hr)?
Its value is 4.0553.

And the “RPL13A mRNA level change” value ([2]; 48 hr)?
The value was 4.9253.

And the “SGK2 mRNA level change” value ([2]; 48 hr)?
The value was 0.5995.

What about the “SIRT2 mRNA level change” value ([2]; 48 hr) of the same molecule?
The value was 5.7166.

What about the “APOE mRNA level change” value ([2]; 72 hr) of the same molecule?
Its value is 5.3315.

What about the “BNIP3 mRNA level change” value ([2]; 72 hr) of the same molecule?
Its value is −4.8424.

And the “CAT mRNA level change” value ([2]; 72 hr)?
Its value is 5.3988.

And the “CCS mRNA level change” value ([2]; 72 hr)?
The value was 6.1539.

And the “CYBA mRNA level change” value ([2]; 72 hr)?
The value was 5.0762.

And the “DUSP1 mRNA level change” value ([2]; 72 hr)?
Its value is 5.5375.

What about the “FOXM1 mRNA level change” value ([2]; 72 hr) of the same molecule?
Its value is −10.0953.

And the “MBL2 mRNA level change” value ([2]; 72 hr)?
The value was −6.4544.

What about the “NCF1 mRNA level change” value ([2]; 72 hr) of the same molecule?
Its value is 31.5369.

And the “NCF2 mRNA level change” value ([2]; 72 hr)?
Its value is 0.

What about the “NME5 mRNA level change” value ([2]; 72 hr) of the same molecule?
Its value is 5.782.

What about the “PRDX5 mRNA level change” value ([2]; 72 hr) of the same molecule?
Its value is 6.0169.

What about the “PREX1 mRNA level change” value ([2]; 72 hr) of the same molecule?
Its value is 7.476.

What about the “PRNP mRNA level change” value ([2]; 72 hr) of the same molecule?
The value was −3.9396.

What about the “PTGS2 mRNA level change” value ([2]; 72 hr) of the same molecule?
Its value is −3.3022.

What about the “RPL13A mRNA level change” value ([2]; 72 hr) of the same molecule?
The value was 7.82.

And the “SGK2 mRNA level change” value ([2]; 72 hr)?
The value was 5.937.

What about the “SIRT2 mRNA level change” value ([2]; 72 hr) of the same molecule?
Its value is 6.6257.

And the “Nitric oxide synthase 2A (NOS2A) mRNA” value ([2]; early)?
The value was “second major early induced protein”.

And the “Neutrophil cytosolic factor 2 (NCF2) mRNA” value ([2]; observed at 6 hours)?
The value was “one of the initial top induced mRNA's”.
